Source: PubChem BioAssay AID463173 (ICCB-Longwood Screening Facility, Harvard Medical School, 2010)
Hit rate of the full screen: of about 52,000 compounds, about 1,700 (3.3%) were called active. No stated cut-off is given here; in the data, active means survival mostly below about 52% (no sharp cut-off); inactive means mostly above about 56%. The list shows a part of the results.

System: Wild type
Assay: S. aureus survival, RN4220 and DeltatarO strains – OD600, teichoic acid synthesis inhibitors, primary screen (AID 463173)
Details: S. aureus RN4220 wild type/DeltatarO growth, OD600, 18 h, active compounds read low, screened at 18.75 µg/mL (by protocol)

Row | SMILES | survival
1 | COc1ccc(S(=O)(=O)NCCCO)cc1-c1nnc2c3ccccc3c(C)nn12 | inactive: 140%
2 | CCOc1ccc(NC(=O)Cn2cc(C(=O)c3ccc(CC)cc3)c(=O)c3cc(OC)c(OC)cc32)cc1 | inactive: 128%
3 | CCOC(=O)c1ccc2c(c1)N(C(CC)C(=O)Nc1ccccc1OC)C(=O)c1ccccc1S2 (stereo unspecified) | inactive: 75%
4 | Cc1ccc(NC(=O)Cn2nc(-c3ccncc3)ccc2=O)cc1Cl | inactive: 129%
5 | CC(C)CCNC(=O)CSc1nc2ccccc2nc1Cc1ccccc1 | inactive: 85%
6 | CCc1ccc(-n2c(=O)c3sc4ccccc4c3n(CC(=O)NC3CCCCC3)c2=O)cc1 | inactive: 83%
7 | CCC(C)C(=O)Nc1ccc(C(C)CC)cc1 (stereo unspecified) | inactive: 109%
8 | Cc1cc(NC(=O)CCS(=O)(=O)c2cc(Br)cc3c2N(C(=O)C2CC2)CC3)ccc1Br | inactive: 86%
9 | CCOC(=O)c1nc(Nc2ccc(C(C)=O)cc2)c2ccccc2n1 | inactive: 81%
10 | COc1cc2c(cc1OC)C(COc1ccc3c(C)cc(=O)oc3c1)N(C(=O)C(C)C)CC2 (stereo unspecified) | inactive: 93%
11 | COc1ccc(Cn2c(=O)c3cccnc3n(CC(=O)Nc3ccc(C)c(F)c3)c2=O)cc1 | inactive: 119%
12 | CN(C(=O)c1ccc(NC(=O)c2ccco2)cc1)C1CCCCC1 | inactive: 104%
13 | O=C(Nc1c(C(=O)Nc2ccc(F)cc2)oc2ccccc12)c1cc2ccccc2o1 | inactive: 41%
14 | Cc1ccc(C)c(CN2CCC(CNC(=O)Nc3ccc(Br)cc3F)CC2)c1 | inactive: 55%
15 | Cc1ccc(C)c(CNC(=O)c2ccc3c(c2)nc2n3CCCCC2)c1 | inactive: 81%
16 | C=CCNc1sc(C(=O)C(C)(C)C)c(N)c1C#N | inactive: 95%
17 | Cc1cccc(-n2ccnc2SCC(=O)Nc2ccc(F)cc2F)c1C | inactive: 71%
18 | Cc1ccc(Nc2nc(C)cs2)cc1 | inactive: 95%
19 | Cc1cc(Oc2c(C(F)(F)F)oc3c(CN4CCC(C)CC4)c(O)ccc3c2=O)cc(C)c1Cl | inactive: 70%
20 | O=C(Cn1c(=O)oc2cc(S(=O)(=O)N3CCCCCC3)ccc21)NCc1ccccc1Cl | inactive: 71%
21 | Cc1ccc(S(=O)(=O)NC(=O)CC#N)cc1 | inactive: 118%
22 | O=C(Nc1cccnc1)c1cccc(C(=O)Nc2cccnc2)c1 | inactive: 117%
23 | C[C@H](NC(=O)OC(C)(C)C)c1nnc(SCc2c(F)cccc2Cl)o1 | inactive: 80%
24 | CCC(=O)Nc1nc(-c2ccc(C)c(C)c2)cs1 | inactive: 108%
25 | CCOC(=O)c1ccc(N2N=C(C(F)(F)F)CC2=O)cc1 | inactive: 89%
26 | CCc1ccc(NC(=O)Cn2nc3c4ccccc4n(Cc4ccccc4)cc-3c2=O)cc1 | inactive: 84%
